Laboratory results taken from the RNAGym collection of RNA variant scans (doi:10.7554/elife.90254).
The source gives no read counts; variants with many changes may rest on few reads.

B1: OR4K15 (parent)
chain: GUUAACGGUCAUAGGCCAUGGAAACUAGGAGCACCAUUUCGCUGCCAGUGAAGAAAUGAACAAAGAAAAUCUGGGCCAGGCAGGCAUCAAAAGAAAUAGUCUUGCGCUCAACCAGAAAGUCUGUAAUCAUUUUAAGGGUA

Variants of: B1
Experiment: self-cleavage, relative activity (ratio to wild type); higher = more cleavage; in vitro, sequencing; the parent is a self-cleaving ribozyme

Question: For A66G C85G A110G, which self-cleavage is on record?
Answer: Its self-cleavage is 0.17.

Question: With U9A U39C A68G A69U A78G as the variant, how does the self-cleavage read?
Answer: Its self-cleavage is 0.34.

Question: Which self-cleavage does the source give for U57C A78G A96G U130A here?
Answer: Its self-cleavage is 0.06.

Question: Which self-cleavage does the source give for A18G A24G A47C C101U U139A here?
Answer: Its self-cleavage is 0.79.

Question: With U2C G20U A47U A60G U108C as the variant, how does the self-cleavage read?
Answer: Its self-cleavage is 0.03.

Question: Which self-cleavage does the source give for A22G A78U A116G here?
Answer: The self-cleavage was 0.29.

Question: For A18G A55G A92G A116G A126G, which self-cleavage is on record?
Answer: Its self-cleavage is 1.09.

Question: With A47G U120A U130C as the variant, how does the self-cleavage read?
Answer: The self-cleavage was 0.21.

Question: With U9C A22G A30U A68G A98U U122C as the variant, how does the self-cleavage read?
Answer: The self-cleavage was 1.24.

Question: With U120C U122C U130C as the variant, how does the self-cleavage read?
Answer: Its self-cleavage is 0.4.

Question: With U3C A11G C17A A24G as the variant, how does the self-cleavage read?
Answer: The self-cleavage was 0.76.

Question: With A27U A82G U130C as the variant, how does the self-cleavage read?
Answer: Its self-cleavage is 0.24.

Question: For A36U U70C C105U, which self-cleavage is on record?
Answer: Its self-cleavage is 0.12.

Question: With A24G U97A G106U as the variant, how does the self-cleavage read?
Answer: Its self-cleavage is 0.03.

Question: Which self-cleavage does the source give for A24G A30G A47G A55G A94G here?
Answer: Its self-cleavage is 0.56.

Question: Which self-cleavage does the source give for A11G A78G A89G here?
Answer: The self-cleavage was 0.36.

Question: Which self-cleavage does the source give for A23G A47G A64G U87A here?
Answer: The self-cleavage was 1.42.

Question: With A94C A95G U139C as the variant, how does the self-cleavage read?
Answer: The self-cleavage was 1.46.

Question: For A13G U39A A78G A111G, which self-cleavage is on record?
Answer: The self-cleavage was 0.09.

Question: Which self-cleavage does the source give for U38C U43C A110G A114G U120C here?
Answer: Its self-cleavage is 0.

Question: With A52G A64G A86G A125G as the variant, how does the self-cleavage read?
Answer: Its self-cleavage is 0.3.

Question: With A62G U103G A114G U124C as the variant, how does the self-cleavage read?
Answer: Its self-cleavage is 0.

Question: With U49C A51G A66G A68G as the variant, how does the self-cleavage read?
Answer: Its self-cleavage is 0.82.

Question: For A18U C77U A116G, which self-cleavage is on record?
Answer: The self-cleavage was 0.6.

Question: For C45U A51G A59U A66U U130C, which self-cleavage is on record?
Answer: Its self-cleavage is 1.77.

Question: For A22G C32G A114G, which self-cleavage is on record?
Answer: The self-cleavage was 0.49.

Question: For A30G U43A A96G G99A A111U U130C, which self-cleavage is on record?
Answer: The self-cleavage was 0.04.

Question: Which self-cleavage does the source give for A22G A55G A66G A96G here?
Answer: The self-cleavage was 1.09.

Question: For A5G A86G C121A A140G, which self-cleavage is on record?
Answer: Its self-cleavage is 2.24.

Question: With U39C A54G A60U A98G A111C as the variant, how does the self-cleavage read?
Answer: The self-cleavage was 0.02.

Question: Which self-cleavage does the source give for A55U A78G A82G U87A U100A here?
Answer: Its self-cleavage is 0.08.

Question: With A13G U38C U72C as the variant, how does the self-cleavage read?
Answer: Its self-cleavage is 0.76.

Question: For A18G A33G G44A A82G U127C, which self-cleavage is on record?
Answer: The self-cleavage was 0.07.

Question: With U43C A54U A95G as the variant, how does the self-cleavage read?
Answer: Its self-cleavage is 2.16.

Question: For U39C A54G A82U A90G A92G A140G, which self-cleavage is on record?
Answer: The self-cleavage was 0.21.

Question: Which self-cleavage does the source give for A23G U26C A30G U43C G74U A89G U139A here?
Answer: Its self-cleavage is 0.18.

Question: With U9A U43C G80C U100C A110G U122C as the variant, how does the self-cleavage read?
Answer: Its self-cleavage is 0.01.

Question: For A51G U57C U97A, which self-cleavage is on record?
Answer: Its self-cleavage is 1.14.

Question: Which self-cleavage does the source give for A22G C45U A67G A117G here?
Answer: Its self-cleavage is 1.87.

Question: For A47U U57C G138A, which self-cleavage is on record?
Answer: Its self-cleavage is 0.3.

Question: With U9C U38C A54G A69G A117G U127C as the variant, how does the self-cleavage read?
Answer: The self-cleavage was 0.77.

Question: Which self-cleavage does the source give for U9C A30U U43C U120C here?
Answer: The self-cleavage was 0.68.

Question: For U70G A86U U124C, which self-cleavage is on record?
Answer: Its self-cleavage is 0.69.

Question: Which self-cleavage does the source give for U9C A36G A82C here?
Answer: Its self-cleavage is 0.11.

Question: Which self-cleavage does the source give for A13G A117G U122C here?
Answer: Its self-cleavage is 1.11.

Question: Which self-cleavage does the source give for U3A A27U A30G U49C A59G here?
Answer: Its self-cleavage is 1.17.

Question: With A30G A56G A59G as the variant, how does the self-cleavage read?
Answer: The self-cleavage was 1.17.

Question: For A4G A68G A96G U130G, which self-cleavage is on record?
Answer: The self-cleavage was 0.44.

Question: For C17U A27G C32U U49C U132C, which self-cleavage is on record?
Answer: Its self-cleavage is 0.72.

Question: With A5G G31A U122C as the variant, how does the self-cleavage read?
Answer: The self-cleavage was 0.26.

Question: For A11C A24G U72C A82G, which self-cleavage is on record?
Answer: Its self-cleavage is 0.26.

Question: With A59U U120C U132C as the variant, how does the self-cleavage read?
Answer: The self-cleavage was 0.46.

Question: Which self-cleavage does the source give for U102A A118U U132C here?
Answer: Its self-cleavage is 0.11.

Question: Which self-cleavage does the source give for A11U A52U A69U here?
Answer: Its self-cleavage is 0.74.

Question: With G1U U72A U102C U132C as the variant, how does the self-cleavage read?
Answer: Its self-cleavage is 0.43.

Question: For A33G A66G U87C A110C, which self-cleavage is on record?
Answer: Its self-cleavage is 0.07.

Question: Which self-cleavage does the source give for A33G A98U A117U here?
Answer: The self-cleavage was 1.44.

Question: For U43A A67G A82U A116G A126G, which self-cleavage is on record?
Answer: Its self-cleavage is 0.07.

Question: With A5U A52G A78C as the variant, how does the self-cleavage read?
Answer: Its self-cleavage is 0.12.

Question: For A22G A54G A62G A64G, which self-cleavage is on record?
Answer: The self-cleavage was 1.08.

Question: Which self-cleavage does the source give for A52G A95G A140G here?
Answer: The self-cleavage was 2.17.

Question: Which self-cleavage does the source give for A95G U103A A110U here?
Answer: Its self-cleavage is 1.78.

Question: For A67G A82U A96U, which self-cleavage is on record?
Answer: The self-cleavage was 0.19.

Question: Which self-cleavage does the source give for C42U A95G A125G here?
Answer: The self-cleavage was 1.21.

Question: With A13G G15A A33G A56G A117G as the variant, how does the self-cleavage read?
Answer: The self-cleavage was 0.52.

Question: For A4G A64G A110U, which self-cleavage is on record?
Answer: The self-cleavage was 1.17.

Question: For G58A A62G A66G A69G A90G A125U, which self-cleavage is on record?
Answer: The self-cleavage was 0.98.

Question: With C17U U103C U124C as the variant, how does the self-cleavage read?
Answer: The self-cleavage was 0.34.

Question: For U26C A86G C121U, which self-cleavage is on record?
Answer: The self-cleavage was 1.26.

Question: Which self-cleavage does the source give for A22U A68G G75C A126G here?
Answer: The self-cleavage was 0.12.

Question: For A55G A56G A69G A116G, which self-cleavage is on record?
Answer: The self-cleavage was 0.24.

Question: Which self-cleavage does the source give for A111G U122C U139C here?
Answer: Its self-cleavage is 0.01.

Question: For A5G A30G A52G A67G, which self-cleavage is on record?
Answer: The self-cleavage was 0.63.

Question: For U39C A59G A60G A62G, which self-cleavage is on record?
Answer: The self-cleavage was 0.35.

Question: For G50A A52G A90G, which self-cleavage is on record?
Answer: The self-cleavage was 1.21.

Question: Which self-cleavage does the source give for U2C G50A A66C here?
Answer: Its self-cleavage is 1.58.

Question: For U19A A62G A63G C109A G115U U122C, which self-cleavage is on record?
Answer: Its self-cleavage is 0.

Question: For U2C A11C U19C A22C A59U, which self-cleavage is on record?
Answer: Its self-cleavage is 1.18.

Question: Which self-cleavage does the source give for A11G A23U U87C here?
Answer: Its self-cleavage is 0.87.

Question: With U38C A54G A62G A94G A95G U108C as the variant, how does the self-cleavage read?
Answer: The self-cleavage was 0.01.

Question: With U87C U130G U131C as the variant, how does the self-cleavage read?
Answer: The self-cleavage was 0.42.

Question: With U37C A54G A55G A86G A91G as the variant, how does the self-cleavage read?
Answer: Its self-cleavage is 0.08.

Question: Which self-cleavage does the source give for U12C A67G U72C U87C here?
Answer: Its self-cleavage is 0.12.
